Assay results as given in PubChem BioAssay AID463173 (ICCB-Longwood Screening Facility, Harvard Medical School, 2010).
Among all 52,000 compounds or so, about 4,300 (8.3%) were called active. Cut-off read from the data, not from the text of the source: active = survival mostly below about 52% (no sharp cut-off); inactive = mostly above about 56%. This is one part of the list.

tested on: DeltatarO mutant; assay: growth inhibition of S. aureus wild type versus tarO mutant, primary screen, teichoic acid synthesis inhibitors, RN4220, OD600 (AID 463173); conditions: OD600, 18 h, hits give low values, screened at 18.75 µg/mL (by protocol)

Structure (SMILES)	survival
Cc1ccc(CN(C(=O)COc2cc(C)c(Cl)c(C)c2)c2ccccn2)o1	inactive: 62%
CC(C)c1noc(-c2ccccc2OCC(=O)Nc2cccc([N+](=O)[O-])c2)n1	inactive: 62%
CN(C)C(=O)c1ccc(N(C)S(=O)(=O)c2ccccc2)cc1	inactive: 87%
CCN(CC)S(=O)(=O)c1ccc2c(c1)c(=O)c(C(=O)N1CCN(c3cc(Cl)ccc3C)CC1)cn2C	inactive: 79%
CC(C)c1nn2c(=O)cc(COC(=O)c3ccco3)nc2s1	inactive: 83%
Cc1[nH]c2ccccc2c1Cc1nnc(SCC(N)=O)n1Cc1ccco1	inactive: 99%
Cc1cc(C)c2sc(N3CCN(C(=O)c4ccc(N(C)C)cc4)CC3)nc2c1	inactive: 124%
Cc1ccc(S(=O)(=O)c2c(O)cc(C)c(NS(=O)(=O)c3ccc(Cl)cc3)c2C)cc1	inactive: 67%
COc1ccccc1N1CCN(S(=O)(=O)c2c(C)nc3sccn3c2=O)CC1	inactive: 80%
Cc1ccc(N2CC(NC(=O)c3cc4ccccc4o3)CC2=O)cc1 (stereo not given)	inactive: 99%
CCCCNC(=O)c1cc2n(n1)CCCN(Cc1ccc(C)cc1)C2=O	active: 32%
CCOc1ccc(C(=O)Nc2ccc3oc(-c4ccc5ccccc5c4)nc3c2)cc1	inactive: 74%
COc1ccc(NC(=O)Cn2c(=O)n(Cc3ccccc3)c(=O)c3sc4ccccc4c32)cc1	inactive: 87%
O=C(CSc1nc(=O)[nH]c2c1CCCC2)NCc1ccccc1	inactive: 80%
COc1ccccc1C(=O)Nc1ccc(C(=O)OCc2cc(=O)n3nc(C4CC4)sc3n2)cc1	inactive: 72%
Cc1nn2c(C)c(C(=O)NC(C)(C)C)cnc2c1-c1ccc(F)cc1	inactive: 109%
Cc1c(C)c2cc3c(c(C)c2oc1=O)OCN(CCc1ccc(F)cc1)C3	active: 41%
Clc1ccc(CSc2nncn3c2cc2occc23)cc1	inactive: 47%
Cc1ccc(Nc2ncnc3c2nc2n3CCCC2)cc1F	inactive: 89%
Cc1nc2nc[nH]n2c(=O)c1NS(=O)(=O)c1ccc(Br)cc1	inactive: 95%
COc1ccccc1CNC(=O)C1CCN(S(=O)(=O)Cc2ccccc2)CC1	inactive: 74%
CCOC(=O)c1c(S(=O)(=O)N2CCC(C(=O)NCc3ccccc3Cl)CC2)c(C)n(C)c1C	inactive: 78%
COCCn1ccc2c(OCC(=O)Nc3cccc(C(F)(F)F)c3)cccc2c1=O	inactive: 101%

Structure (SMILES)	survival
COc1ccc(N2CC(NC(=O)C(c3ccccc3)c3ccccc3)CC2=O)cc1 (stereo not given)	inactive: 84%
COc1cccc(CNC(=O)c2ccc3c(c2)sc2nc(-c4cccc(OC)c4)cn23)c1	inactive: 65%
CCc1nc2nc(C)cc(Nc3cc(C)ccc3C)n2n1	inactive: 88%
CCOC(=O)c1ccc(NC(=O)Cn2nc(C)c3nn(-c4ccc(Cl)cc4)c(C)c3c2=O)cc1	inactive: 102%
O=C1c2ccccc2NC(c2ccncc2)N1c1ccccn1 (stereo not given)	inactive: 101%
CCOC(=O)c1c(NC(=O)C(C)Sc2cn(CCNC(=O)c3ccc(OCC)cc3)c3ccccc23)sc2c1CCC2 (stereo not given)	inactive: 92%
Cc1cccc(N2CCN(C(=O)c3cnn(-c4ccccc4)c3C3CCN(C(=O)OC(C)(C)C)CC3)CC2)c1C	inactive: 87%
COc1ccc(CNC(=O)C(=O)NCC(c2cccnc2)N2CCN(c3ccccc3)CC2)cc1 (stereo not given)	inactive: 47%
Cc1cccc(N(C)S(=O)(=O)c2ccc3c(c2)NC(=O)CC(=O)N3)c1	inactive: 86%
Cc1cc(C)cc(-n2c(SCC(=O)Nc3ccc4c(c3)OCO4)nc3c([nH]c4ccccc43)c2=O)c1	inactive: 81%
COc1cccc(Cn2c(=O)n(Cc3ccccc3)c(=O)c3c2c2cc(OC)ccc2n3C)c1	inactive: 64%
CCCN1CCCc2cc(CN(CCCN3CCOCC3)C(=O)Nc3ccc(Cl)c(Cl)c3)ccc21	inactive: 94%
Cn1c(O)c(N=NC(=S)Nc2ccccc2)c2ccccc21	inactive: 63%
COc1ccc(C2C3=C(CCCC3=O)NC3=C2C(=O)c2ccccc23)c(OC)c1OC (stereo not given)	inactive: 96%
COc1ccc2sc(N(Cc3cccnc3)C(=O)CCc3ccccc3)nc2c1	inactive: 109%
O=C(COC(=O)c1ccccc1)Nc1ccc2c(c1)OCO2	inactive: 97%
Cc1cc2[nH]c(=O)c(=O)[nH]c2cc1S(=O)(=O)N1CCN(c2ccccc2F)CC1	inactive: 78%
CC1=C(c2ccc(Cl)cc2)S(=O)(=O)N=C1N1CCN(c2cc(C)ccc2C)CC1	inactive: 106%
CC(=O)ONC(=Nc1ccccc1C)c1nonc1N	inactive: 101%
CCN(C(=O)C(NS(=O)(=O)c1ccc(Br)s1)c1ccccc1)c1ccc(C)c(C)c1 (stereo not given)	inactive: 87%
CC1(C)CC(=O)c2cc(-c3nc(-c4ccc(F)cc4)cs3)c(=O)[nH]c2C1	inactive: 75%
CC(C)c1ccc(-c2noc(C3CCCN(C(=O)Cc4cccs4)C3)n2)cc1 (stereo not given)	active: 40%
Cc1cc(=O)n2nc(N)sc2n1	inactive: 83%

Structure (SMILES)	survival
COC(=O)c1c(NC(=O)c2ccc(C(C)(C)C)cc2)sc2c1CCC(C)C2 (stereo not given)	inactive: 85%
CCN(C(=O)Cn1nc(Cc2ccncc2)c2ccccc2c1=O)c1ccc(OC)cc1	inactive: 80%
COc1cc(C2CC(=O)c3c([nH]c(C(=O)OC4CCCC4)c3C)C2)cc(OC)c1OC (stereo not given)	active: 51%
COCCn1nnnc1CN1CCC(Cc2ccccc2)CC1	inactive: 97%
Clc1ccc(-c2cn3cc(Cc4ccccc4)sc3n2)cc1	inactive: 70%
O=C(CSc1nc(=O)n(Cc2ccncc2)c2c1CCC2)Nc1cccc(F)c1	inactive: 99%
CCOc1ccc(CCNC(=O)c2ccc(CSCc3ccccc3C)o2)cc1OCC	inactive: 112%
CC(=O)Nc1ccc(S(=O)(=O)NCC2CCC(C(=O)NCCc3ccc(C)cc3)CC2)cc1 (stereo not given)	inactive: 86%
COc1ccc(NC(=O)Cn2c(-c3ccc(F)cc3)cc(C(C)=O)c2C)c(OC)c1	inactive: 120%
O=S(=O)(c1ccccc1)n1nc(-c2ccc(Cl)cc2)nc1NCc1ccccc1	inactive: 52%
CC(=O)c1cccc(NC(=O)c2ccc3c(c2)N(Cc2ccc(C)cc2)CCS3)c1	inactive: 79%
N#C/C(=C\c1ccc(F)cc1)c1nc(-c2ccc(-c3ccccc3)cc2)cs1	inactive: 69%
CCCC1=Nc2cc(C(=O)NC3CCCCC3)ccc2Sc2ccc(C)cc21	inactive: 94%
COc1cccc(CC(=O)Nc2c(C(=O)N3CCN(c4ccccc4F)CC3)oc3ccccc23)c1	inactive: 92%
CCC(=O)N1c2ccccc2CC1C(=O)NCCN1CCN(c2cc(Cl)ccc2C)CC1 (stereo not given)	active: 52%
COc1ccc(C)cc1NC(=O)Cn1cc(S(=O)(=O)N2CCC(C)CC2)c2ccccc2c1=O	inactive: 75%
O=C(Cc1ccc(Cl)cc1)Nc1ccc2oc(-c3ccc(F)cc3)nc2c1	inactive: 63%
Cc1cc(C)cc(OCC(=O)N2CCC(c3nc4ccccc4o3)CC2)c1	inactive: 79%
COC(=O)c1ccccc1NC(=O)C(Cc1ccccc1)N1Cc2ccccc2C1=O (stereo not given)	inactive: 54%
CCOc1ccc(NC(=O)c2c(NCc3cc(OC)c(OC)cc3OC)sc3c2CCCC3)cc1	inactive: 74%
CCc1ccc(C2=NN(CCC(=O)NCCc3ccccc3)C(=O)CC2)cc1	inactive: 94%
CCc1c(C)c2cc3c(c(C)c2oc1=O)OCN(CCc1ccc(OC)c(OC)c1)C3	inactive: 52%
Cc1ccc(-n2cnc3ccccc3c2=O)cc1Cl	inactive: 101%

Structure (SMILES)	survival
CCOC(=O)C1=C(C)NC(=O)C1CC(=O)O (stereo not given)	inactive: 84%
Cc1cc(C)c2c(n1)sc1c(Cl)ncnc12	inactive: 110%
COc1cc2c(cc1OC)C(CC(=O)O)N(C(=O)Nc1cc(OC)c(OC)c(OC)c1)CC2 (stereo not given)	inactive: 91%
Cc1ccc(C)c(N2CCN(CCCNC(=O)c3ccc4nc(N5CCC(C)CC5)sc4c3)CC2)c1	active: 4%
Cn1c(SCCN2CCCC2)nnc1-c1ccncc1	inactive: 101%
CCCn1c2ccccc2c2cnn(CC(=O)Nc3cc(OC)c(OC)c(OC)c3)c(=O)c21	inactive: 119%
CSc1nnc(COc2ccc(Cl)cc2)n1C	inactive: 82%
CCC1(C)CC(=O)c2c(ccc3oc(C(=O)Nc4ccc(C(C)=O)cc4)c(C)c23)O1 (stereo not given)	inactive: 78%
CCOc1ccc(C(=O)NCCc2csc(-c3cccc(C)c3)n2)cc1	inactive: 94%
COc1ccc(C(=O)OCC(=O)c2ccc(C)cc2)cc1OC	inactive: 96%
CC(C)CC(=O)Nc1nnc(S(=O)(=O)N2c3ccccc3CC2C)s1 (stereo not given)	inactive: 75%
CC(C)c1ccc(Nc2sc(C(=O)c3ccccc3)c(N)c2S(=O)(=O)c2ccccc2)cc1	inactive: 70%
CCc1nc2ccc(C(=O)N3CCN(c4cccc(Cl)c4)CC3)cc2nc1CC	inactive: 82%
Cc1ccc(N2CCN(C(=O)Cn3ncc4c([nH]c5ccc(C)cc54)c3=O)CC2)c(C)c1	inactive: 94%
CCc1cccc(NC(=O)C(Cc2ccccc2)NS(=O)(=O)c2cccs2)c1 (stereo not given)	active: 44%
CC(=O)c1ccc(Nc2cc(C)nc3nc(Cc4ccccc4)nn23)cc1	inactive: 64%
CCOc1nc(NCCO)nc(NCCC2=CCCCC2)n1	inactive: 67%
COc1ccc(N(CC(=O)NCCc2ccccc2)S(=O)(=O)c2c(C)nn(C)c2C)cc1	inactive: 109%
CC(=O)Nc1ccc(Nc2ccc3cc(S(=O)(=O)N4CCCCC4)ccc3n2)cc1	inactive: 89%
O=C(NC1CC(=O)N(c2ccc(Cl)cc2)C1)c1cc2ccccc2o1 (stereo not given)	active: 52%
CCCc1ccc(OCC(=O)Nc2sc3c(c2C(=O)OCC)CCC(C(C)(C)C)C3)cc1 (stereo not given)	inactive: 125%
